This passage reports binding results from publication PMC8224886.

By UniProt entry, the sequences of proteins in these tests, tags left out.
UniProt P40763: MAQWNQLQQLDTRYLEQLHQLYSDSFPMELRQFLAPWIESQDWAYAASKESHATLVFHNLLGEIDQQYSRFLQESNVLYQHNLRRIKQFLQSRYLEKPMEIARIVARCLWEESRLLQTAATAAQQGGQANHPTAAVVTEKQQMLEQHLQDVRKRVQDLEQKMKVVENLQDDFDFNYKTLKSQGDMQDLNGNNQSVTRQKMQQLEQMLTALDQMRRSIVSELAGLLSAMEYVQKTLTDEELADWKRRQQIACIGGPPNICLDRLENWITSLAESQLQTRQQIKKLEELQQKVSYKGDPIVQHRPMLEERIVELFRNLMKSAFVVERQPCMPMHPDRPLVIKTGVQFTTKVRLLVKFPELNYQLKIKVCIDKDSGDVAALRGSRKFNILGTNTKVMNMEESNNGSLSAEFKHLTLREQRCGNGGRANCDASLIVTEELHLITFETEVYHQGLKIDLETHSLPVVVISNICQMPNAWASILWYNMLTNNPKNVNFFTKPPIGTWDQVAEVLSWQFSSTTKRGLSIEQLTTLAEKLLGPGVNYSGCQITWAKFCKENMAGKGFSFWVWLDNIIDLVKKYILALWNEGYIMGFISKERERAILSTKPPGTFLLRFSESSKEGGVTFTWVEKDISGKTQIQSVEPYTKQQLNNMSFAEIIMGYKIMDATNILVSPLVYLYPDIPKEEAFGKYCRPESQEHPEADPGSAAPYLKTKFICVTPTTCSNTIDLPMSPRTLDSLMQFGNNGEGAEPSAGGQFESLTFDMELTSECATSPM
UniProt Q05322: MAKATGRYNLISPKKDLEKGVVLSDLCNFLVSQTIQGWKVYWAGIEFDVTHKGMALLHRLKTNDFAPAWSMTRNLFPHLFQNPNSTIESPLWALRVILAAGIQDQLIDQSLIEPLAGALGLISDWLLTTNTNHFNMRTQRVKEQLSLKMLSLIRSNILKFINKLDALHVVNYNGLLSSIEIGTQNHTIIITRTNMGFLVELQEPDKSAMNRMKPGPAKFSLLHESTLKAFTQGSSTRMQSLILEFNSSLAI
UniProt P52294: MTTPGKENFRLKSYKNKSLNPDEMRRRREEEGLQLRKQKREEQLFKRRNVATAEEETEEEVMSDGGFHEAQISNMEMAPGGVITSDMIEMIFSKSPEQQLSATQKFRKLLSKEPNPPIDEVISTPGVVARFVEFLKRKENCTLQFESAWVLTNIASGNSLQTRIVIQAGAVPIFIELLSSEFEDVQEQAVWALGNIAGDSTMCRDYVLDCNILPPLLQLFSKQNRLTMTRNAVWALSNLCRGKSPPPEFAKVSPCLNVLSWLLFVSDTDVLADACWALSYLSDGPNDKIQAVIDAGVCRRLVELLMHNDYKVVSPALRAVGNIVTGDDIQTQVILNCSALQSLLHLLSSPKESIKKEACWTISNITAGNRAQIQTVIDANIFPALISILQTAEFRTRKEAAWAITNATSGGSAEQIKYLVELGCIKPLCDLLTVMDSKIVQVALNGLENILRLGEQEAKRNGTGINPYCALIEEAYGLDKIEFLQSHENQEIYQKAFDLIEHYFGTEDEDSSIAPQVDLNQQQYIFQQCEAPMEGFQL
UniProt O00629: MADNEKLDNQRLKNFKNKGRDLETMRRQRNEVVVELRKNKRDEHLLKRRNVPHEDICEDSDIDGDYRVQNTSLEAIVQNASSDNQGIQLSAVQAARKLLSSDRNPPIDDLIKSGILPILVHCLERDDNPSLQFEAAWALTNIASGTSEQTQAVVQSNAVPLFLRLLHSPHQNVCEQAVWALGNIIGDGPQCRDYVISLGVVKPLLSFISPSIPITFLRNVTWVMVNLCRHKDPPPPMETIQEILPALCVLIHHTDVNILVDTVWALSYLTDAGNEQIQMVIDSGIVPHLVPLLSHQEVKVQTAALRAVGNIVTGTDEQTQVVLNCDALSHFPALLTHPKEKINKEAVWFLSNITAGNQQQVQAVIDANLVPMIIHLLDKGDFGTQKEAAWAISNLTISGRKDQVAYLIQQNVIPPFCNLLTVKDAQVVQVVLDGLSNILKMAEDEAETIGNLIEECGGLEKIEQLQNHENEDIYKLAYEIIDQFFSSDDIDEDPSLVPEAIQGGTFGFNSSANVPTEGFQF

No constants are given. Whether binding was seen depends on the method and setting. Binding seen in cells or lysates may run through a third protein. Some entries that bind do so weakly or less than the wild type.

What all share (experiment): co-IP
Assay [1] addresses STAT3-mCherry (UniProt P40763).
The target in assay [2] is GFP-VP24 (Ebola virus VP24 fused to GFP) (Ebola virus (EBOV, species Zaire ebolavirus)) (UniProt Q05322).
Assay [3] addresses FLAG-tagged karyopherin alpha-1 (FLAG-Kα1) (UniProt P52294).
Assay [4] has as its target FLAG-tagged karyopherin Kα4 (FLAG-Kα4) (UniProt O00629).

For the substance “FLAG-VP24 (Ebola virus VP24, FLAG-tagged) (from UniProt Q05322 1-251)”, in assay [1], the binding result is on record as “binds”.

Regarding “FLAG-tagged wild-type STAT3 (FLAG-STAT3 WT) (from UniProt P40763 1-770)”, the binding result in assay [2] was “binds”.

Turning to “GFP-VP24 (Ebola virus VP24 fused to GFP) (from UniProt Q05322 1-251)”, the binding entry in assay [3] is “binds”; in assay [4] it was “no binding”.

On to “endogenous STAT3 (total STAT3) (from UniProt P40763 1-770)”, for which the binding result in assay [2] was “binds”.

Regarding “pY-STAT3 (tyrosine-phosphorylated STAT3), endogenous (from UniProt P40763 1-770)”, the binding result in assay [2] was “binds”.
